The record followed here is the supplement of paper PMC12632987.

The chains are these.
B1: GBRAP_160_4688 (protein)
chain: SEKVEKAEKFIEEEFEEVVEIHEEVTKEELAAAVRVAFGNIILELEELGLLTDEIGEIIREEEDKIVKYILENPNITKEELKKMLEEAKEKIVKKLKEES
B2: GBRAP_150_3906 (protein)
chain: DLETALTIASTLIDILEAILDGEFDLLPHAIKLAKALLEEAKEISEEIKKLAEKLLKLLEEAKKLLKEGGKKEEIKKLVEKALELAKKIEELLEKKIKEE
B3: GBRAP_160_4134 (protein)
chain: KEELEKLIKEIKEITEEAIKLIEGESVENAKTIAKVALGDILLLVSSNEAVSEETEDKIGEIVDEAEKYLDDNPNASVEEIKELLKETTEKVVEILKEER
B4: GBRAP_11_2800 (protein)
chain: KKEKLEEAAELAEKLAEKLEELIEKGVDDEELREEIRELLEELEKLAKEHLDKGLQKLVEIAKELFEKIDEDPENAEQYAKEALATVRVLEGNILLEIEE
B5: GBRAP_128_3521 (protein)
chain: SIEEAIKEARETVEKIKNSSVEEAYKIAKEFLEKLKEWSLEEVEAAVEEMEKLLPELSAEKLEAVADAIREQRGEFSPEVARLLAGLQVEALNLAEEKEE
B6: GBRAP_35_5588 (protein)
chain: EDEELILEELEDQAEATLWALKEEDDETALAMLEAFIRFAKRAIEDLKNNKEALEKIAELIEEVIKAIKEYRSDNPEFQKKLKELEKLLKEAKELIKKNE
B7: GBRAP_160_4837 (protein)
chain: SEKEKEVEKRFKEVEEFILSLVDEVSVEELANAFDTETGSVILELYEEGVINEEAEDKAMELRDETVEALRAAKDASPEELKKIIKEGIKKIIEAIKALL
B8: GBRAP_52_6037 (protein)
chain: MREKMREKAEEIVKLVLEGKLEEAEKLIRELVETLSEEELLLLGEELARIAREAPEEELDAILEAAFILADELIEGGYEEVLADEIEARVTRAAVERLER
B9: GBRAP_95_7076 (protein)
chain: EEDLELLEILADTAIDLYEAGLKEEAARLMKLAIEEAKELGYKVKNKELWTKLLKYFVELALEYFDAEEVEKALEIAKASGAPEEIIEELEKKLEELKKK
B10: GBRAP_52_5856 (protein)
chain: SAARMRALAEELLALQLAGDEAGLEARIAELVATLSEEEILALLEELAALAKEANPEEAEAILEVAELLADAAEAAGFDEDELSYALAEVAAAAYKQLQK
B11: GBRAP_11_2802 (protein)
chain: KKEELKKIAKLAEELAKAVEELLKKGVDDEKLLKEIKKLLEELKKLVEKYGDEGLKKLAEIAEELLKKAEADPENKEQYLKELLATARVLAGNVLLEIEE
B12: GBRAP_11_2860 (protein)
chain: KKEKLKEAAELAKEAAELLEELLERGPDDEELRKKLREALEELEKLLKEYGDKDLIKLAEFAAEDFEKAQEDPENAEEHLRRALAATRVLEGQLLLEIDE
B13: GBRAP_52_6166 (protein)
chain: AEARAAALADRLVAAVRAGDEAAVRAILEEAAATMNDEELALLLDHVAARVAGLSPEDQERVVEAAIEFEDIAIAAGHDEELLSYHVARVAAAAYDALQA
B14: GBRAP_166_4943 (protein)
chain: DLEEVKKKLEEEIEEFKKNISKLNDEERNDALIEIGELIREAKEAGMSDEEIVEAIGKVLEAAKEAGFNPANAAGIIINVADLSEELRDKVWEYVDKLKK
B15: GBRAP_52_6157 (protein)
chain: MEARAEAYANALIAAVKAGDEAAIRALMEEIAATLSEEEIELMMAIVAEKVAGLTPEEQERAVEAALELEDILIAAGHDENIASYNTARVAGAAYDALQA
B16: GBRAP_11_2824 (protein)
chain: SKAKKEELAKKAEAIAKRLAALIASGAPTEEELEALREEAKALLEEVKKHGTPAEAKLAEILLEEIEKAIADPENREEHLKNALAFAQVLAGQFLLEADE
B17: GBRAP_18_5404 (protein)
chain: SDETFQAAWAALSPELQDLVAEAAYDALSEEDEEERIEILVDTLVRIAETASPEEVHNALLVLLLSVVSRREEALRIVERFVARRPEMRPVAEAALAELE
B18: GBRAP_11_2935 (protein)
chain: EKEKLKKAKEYAKKAAELIKKIIEAGKLDEELAKEAKELVEKAAKLAKELGLEEEKKDLELAAELIEEIIKAGKLDKTKAAAAKALVFDVAHELEEELEK
B19: GBRAP_74_6518 (protein)
chain: MEELLKELEKAAEEGDAEKAVELARKIVKEGDLETIERAARIMVEFVDKHLDELSPEELEKVSEALAELADELMLRGGDPETVKAVAEAAVRAEEKLAAL
B20: GBRAP_160_4775 (protein)
chain: SEKTEELKKEIKEAAEEIKEAIDTLSPEEALIVVRGETGDIIQTTFELGFDNDELEEKIAEIMDELVKEMEKNKNASPEVKKKIVDEYAKKAIETLEKLS
B21: GBRAP_43_5784 (protein)
chain: SAELVAGALDTAELLFQEPSVSQEQKVAAAIAAFDLAADEGVADREAIRAVVEAAAASLDKASLERLAAHARELAEAHPELAAVFREAAALLEAAIAALE
B22: GBRAP_184_5305 (protein)
chain: MVVEVTIEAETAEEAIAQINAAAEQARAAGAKLRLYLLLKNVDVEGFRRIAELIKRLKEEGIIEEAIVEVENDLSEEEIDELIKIADEAGVTLVIALPEE
B23: GBRAP_39_5668 (protein)
chain: EKEEEMELEISYLEAIAAKELYETGKSLDEAYAEAKKILTAYAKEHPELKELVDELIKLADEKGEEAKLVAIGIAVLIKEGTPLEEIKEKIETAVEYFKS
B24: GBRAP_160_4159 (protein)
chain: SEEVEKLIKEIDEIFEETKKLIEGESIEQRAVIIAGGMGEIIMLLEESPVVSEEVVDLAVELEDELVETLKANPDLTLEEIKKLIDEVRDKIIAAIKKSA
B25: GBRAP_43_5763 (protein)
chain: SKELVDGAFDFALLALEEPNIPEETKVKAIIAAFELAADEGYVNPEEVEAVVEKAAETLSAEELKKILKALKEIAKKYPELKETLEKAIKKLEEAIKKKE
B26: GBRAP_52_5992 (protein)
chain: MREEAKKVAEEAVKLMLEGKEEEAEKLLKEVVETKSEEFLKLVAEELAEMAKKADPETRDAIVEVAIMLEDIALEAGFDEAEADDGLARVAAAAYEALQA
B27: GBRAP_43_5771 (protein)
chain: SKELVEGALDFALLAAESPEIPEETKVKAIIAAFELAADEGYADRELVLKVVKAAAKNLSAEELKKILEKLKEIAKEHPELKEVFEEAAKILEKAIKEKE
B28: GBRAP_83_6975 (protein)
chain: AEEIVVAAPADRVEEAVEIAIDLAKEEGKKVTLEILTTPEQRERVLEAVERLLKEVPNIEIVVVLRGATKEEAEELEKELKEIAKELGVNADIEVLIEEP
B29: GBRAP_160_4052 (protein)
chain: EEGKKELLESVEEAEELILETLREDGVEAAIVVADGEFGSIIMEAAEDENASEELEEELDKIRDELVARLKEARDASLEEQEAIIKEAAEEAKKKIEELY

Over roughly 4,500 sequences, “median log2 fold change of GCK-ALFA target abundance (FLAG IP / Myc IP barcode read proportion)” has its median near 0.078; the lowest 2% begin near -0.6. The list shows a part of the results.

In the test the target is GABARAP, O95166. Description: median log2 fold change of GCK-ALFA target abundance (FLAG IP / Myc IP barcode read proportion) (log2 ratio); each designed protein is fused to an ALFA-tag nanobody in HEK293 cells to bring the named protein to FLAG-tagged glucokinase (GCK); Myc marks an untargeted standard; higher = target protein stabilised (more abundant). Particulars: target protein: 3xFLAG-MCP-GCK-ALFA reporter; HEK293 landing pad (RPLP). In outline: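 Binders fused to an ALFA nanobody were recombined as a library into HEK293 landing-pad cells, which were induced with 2 μg mL^−1 doxycycline and then transfected to express a FLAG-tagged target and a Myc-tagged standard. After 48 h, circular RNA barcodes recovered by anti-FLAG and anti-Myc immunoprecipitation of lysates were reverse transcribed, amplified and sequenced. Each binder's target abundance is the median log2 ratio of FLAG to Myc barcode read proportions, from barcodes present at ≥10^−7 in both replicates, binders carrying ≥3 barcodes per replicate, a 10^−6 pseudocount and pooled replicates.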
Sequence of GABARAP, O95166 (O95166 whole entry, the tested form may be a part): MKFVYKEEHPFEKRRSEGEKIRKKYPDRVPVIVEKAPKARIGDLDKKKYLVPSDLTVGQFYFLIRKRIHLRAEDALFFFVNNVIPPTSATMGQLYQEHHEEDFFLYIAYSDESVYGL
As to B1, the “median log2 fold change” value was -0.0437. In the case of B2 it was -0.555; in that of B3, -0.336. The same measure for B4: 0.203. The same measure for B5: 0.363; for B6: -0.0436. B7: the “median log2 fold change” value was 0.52.

Take B8: the “median log2 fold change” value is -0.655. In the case of B9, the “median log2 fold change” value was -0.202. Regarding B10, the “median log2 fold change” value was -0.118. As for B11, the “median log2 fold change” value is 0.248. The same measure for B12: 0.221; for B13: -0.0855. As to B14, the “median log2 fold change” value came out at 0.291.

Consider B15, for which the “median log2 fold change” value was -0.262. Turning to B16, the “median log2 fold change” value was 0.0218. In the case of B17 it was -0.414.

Regarding B18, the “median log2 fold change” value was 0.441.

Take B19: the “median log2 fold change” value was 0.127.

With B20, the “median log2 fold change” value worked out at 0.23. In the case of B21, the “median log2 fold change” value stood at 0.247. The same measure for B22: -0.0724; for B23: 0.303. The same measure for B24: 0.106; for B25: 0.0293; for B26: -0.129.

As for B27, the “median log2 fold change” value was 0.253. The same measure for B28: 0.0242. In the case of B29 it was -0.0679.
